Experimental findings from PubChem BioAssay (NCI) are described below.

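Cells were grown in 96-well plates and exposed to each compound for 48 hours at five concentrations; endpoints were interpolated linearly between bracketing concentrations, or set to the highest concentration if not reached. GI50: concentration for 50% inhibition of growth. TGI is the concentration that stops growth completely.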 A value given as a limit tells only on which side of the number the result lay.

One may read the GI50 as the concentration at which growth is held to half of that of the control. For orientation: TGI means the concentration giving total growth inhibition. Higher therefore signals lower sensitivity of the cells.

This assay has as its system NCI-H322M lung. Kind of assay: DTP human tumour cell line panel, 48 h.
For the compound `CC[C@H](C)[C@H](NC(=O)c1cnccn1)C(=O)N(C)[C@H](C[C@@H](OC(C)=O)c1nc(C(=O)N[C@@H](Cc2ccccc2)C[C@H](C)C(=O)OC)cs1)C(C)C`, the GI50 is 1.93 µM and the TGI was over 33.3 µM.
For `NC(Cc1[nH]nc2ccccc12)C(=O)O` (stereo not given), the TGI was over 100 µM.
The same measure, in the same setting: then `CC(=O)OCC(=O)O[C@@H]1[C@H]2[C@@H](OC(=O)c3ccccc3)[C@@H](C)C[C@]2(O)[C@H](OC(C)=O)[C@@]2(C)C[C@]1(OC(C)=O)C[C@H]1C(=O)C(C)(C)[C@@H](OC(C)=O)[C@@H]12`, with over 25 µM.
On the same count and under the same terms, the value for `Cc1nc2c(n1CC(C)(C)C)C(=O)c1ccccc1C2=O` was over 100 µM; that for `O=c1nc(-c2ccccc2)c2c3c(cccn13)CCC2` was over 100 µM; that for `CCCCCCCCCCCCNC(=O)CCC(NC(=O)c1ccc(N(C)Cc2cnc3nc(N)nc(N)c3n2)cc1)C(=O)NCCCCCCCCCCCC` (stereo not given) was over 100 µM.
On the same count and under the same terms, the value for `O=P(OCc1ccccc1)(OCc1ccccc1)C(O)/C=C/c1ccccc1` (stereo not given) was 67.3 µM.
Regarding `Cc1c(C)c2cc3c(=O)ccoc3c(C)c2oc1=O`, the TGI is over 100 µM.
Same read-out and setting: then `O=c1oc2ccccc2c(O)c1C=NC(=S)c1ccncc1`, with over 100 µM.
The same measure, in the same setting: then `O=C(C(=O)c1ccc(Cc2ccc(C(=O)C(=O)c3ccccc3)cc2)cc1)c1ccccc1`, with over 100 µM.
With `O=C1[C@@H](c2ccc(Cl)cc2)[C@H]2CC=C[C@H]2N1O`, the TGI was over 100 µM.
Consider `COc1ccc(Cl)cc1Nc1nc(C(F)(F)F)ccc1C(=O)NN`, for which the GI50 was 2.3 µM and the TGI was over 100 µM.
Take `COC(=O)C1=C(C(=O)OC)SC(=C2SC3=C(SC(=C4SCCS4)S3)S2)S1`: the TGI is over 100 µM.
Same read-out and setting: the value for `Cc1cc2c(C(C)C)c(O)c(O)c(C=Nc3cc(C(F)(F)F)ccc3Cl)c2c(O)c1-c1c(C)cc2c(C(C)C)c(O)c(O)c(C=Nc3cc(C(F)(F)F)ccc3Cl)c2c1O` was over 100 µM; that for `CC(C)c1cccc(C(C)C)c1NC(=O)C(=O)C(C(=O)c1ccccc1-c1ccccc1)C1OC(=O)c2ccccc21` (stereo not given) was 32.6 µM.
As to `Cc1ccc(C(=O)Nc2ccc(CN3CCN(C)CC3)c(C(F)(F)F)c2)cc1C#Cc1cnc(N)c2ccc(F)cc12`, the GI50 was 0.462 µM and the concentration for total growth inhibition (TGI) worked out at 2.16 µM.
The matching figures for `CC1(C)N=C(N)N=C(N)N1c1ccc(CCc2ccccc2)c(Cl)c1`: 0.0968 µM and 19.6 µM.
Consider `Nc1c(S(N)(=O)=O)cc(S(N)(=O)=O)cc1S(N)(=O)=O`, for which the TGI is over 100 µM.
For `COc1ccc(OC)c(-c2cc(-c3ccccc3)nn2-c2ccc(S(=O)(=O)NC(C)=O)cc2)c1`, the GI50 is 18.4 µM and the TGI is 36.2 µM.
Turning to `C[N+]1(CCN=C=NC2CCCCC2)CCOCC1`, the concentration for total growth inhibition (TGI) was over 100 µM.
